According to PubChem BioAssay AID588795 (National Center for Advancing Translational Sciences (NCATS), 2011):
Where “and” joins values, the source holds several entries; their conditions need not be identical. Equal entries are not always repeated. Out of some 390,000 compounds screened, about 1,400 (0.36%) were called active. The inconclusive results got no clear call from the source; some entries with a clear call stand among them for comparison. The call rests on the fitted dose curve; in most records, active means well fitted inhibition curve with a large enough effect; inconclusive means small, poorly fitted or top-dose-only effect; inactive means no such curve, though single readings can be large or run the other way. Where the call is inconclusive, the potency comes from a doubtful curve fit.

Each molecule was assayed against Flap endonuclease 1 (Homo sapiens) (UniProt P39748) (assay: qHTS Assay for the Inhibitors of Human Flap endonuclease 1 (FEN1).). Details: Recombinant FEN1 flap cleavage, fluorescence, 15 min; series mostly up to 114 µM.
Outline: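 Recombinant FEN1 (10 nM) was preincubated with pin-transferred compounds for 15 min at room temperature, then flap DNA substrate (50 nM final) was added. Plates were read at 0 and 15 min, and normalized concentration–response data were fitted to a four-parameter Hill equation.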
Further: nearly all actives have a fitted effect of over 65% in size.
Potency means the concentration at half of the fitted maximal effect; tags describe the fitted curve by direction and shape.

Chain of UniProt P39748 (P39748 whole entry, looked up): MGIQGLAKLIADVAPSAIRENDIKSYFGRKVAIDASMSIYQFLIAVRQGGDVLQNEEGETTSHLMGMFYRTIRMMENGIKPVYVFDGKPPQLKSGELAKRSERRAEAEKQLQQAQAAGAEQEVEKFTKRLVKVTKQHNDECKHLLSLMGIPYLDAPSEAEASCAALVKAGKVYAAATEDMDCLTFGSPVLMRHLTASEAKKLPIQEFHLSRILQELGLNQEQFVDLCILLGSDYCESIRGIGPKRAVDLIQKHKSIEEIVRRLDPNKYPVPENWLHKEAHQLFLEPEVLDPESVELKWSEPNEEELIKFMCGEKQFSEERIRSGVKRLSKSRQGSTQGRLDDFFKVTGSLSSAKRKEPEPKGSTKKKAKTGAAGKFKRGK

Q: For COc1cc(C2Nc3cccc4cccc(c34)N2)cc(OC)c1OC(C)=O, which Potency is on record?
A: Its Potency is active: 31.6 µM.

Q: N#CC1=C(N)N(c2ccc(F)cc2)C2=C(C1c1ccc(O)cc1)S(=O)(=O)CC2 (configuration not stated) was tested. Which Potency did it give?
A: The Potency was “inactive”.

Q: Cc1n[nH]c(C)c1Sc1ccccc1[N+](=O)[O-] was tested. Which Potency did it give?
A: The Potency was “inactive”.

Q: With Cc1nc(Nc2ccc3c(c2)OCO3)c2oc3ccccc3c2n1 as the molecule, how does the Potency read?
A: The Potency was inconclusive: 89.1 µM [inhibitor, partial curve, poor fit].

Q: How did the Potency turn out when O=C(CCn1c(=O)c2cccn2c2cccnc21)N1CCN(c2cccc(Cl)c2)CC1 was run?
A: Its Potency is inconclusive: 89.1 µM [inhibitor, single point].

Q: With O=C1C(C2=C(O)c3ccccc3C2=O)=Nc2ccccc21 as the molecule, how does the Potency read?
A: Its Potency is “inactive”.

Q: With CCOC(=O)c1cc(-c2ccc(C)cc2)n(CCC(=O)Nc2ccc(OC)c(OC)c2)c1C as the molecule, how does the Potency read?
A: Its Potency is “inactive”.

Q: Which Potency does the source give for O=C(O)CSc1cc(C(=O)c2ccccc2O)cn2c(=O)c3c4c(sc3nc12)CCCC4 here?
A: The Potency was inconclusive: 39.8 µM [inhibitor, partial curve].

Q: With COc1ccc(-c2cnc(C)o2)cc1S(=O)(=O)Nc1ccc(C)c(N(C)C)c1 as the molecule, how does the Potency read?
A: The Potency was “inactive”.

Q: Which Potency does the source give for CSc1nnc(C(C)(C)C)c(=O)n1/N=C/c1ccc(Cl)cc1 here?
A: Its Potency is “inactive”.

Q: O=[N+]([O-])c1ccc(C2Nc3cccc4cccc(c34)N2)cc1 was tested. Which Potency did it give?
A: The Potency was inconclusive: 89.1 µM [inhibitor, single point].

Q: With C[C@@]12CC(=O)NC1N(C(=O)c1cccc(C(F)(F)F)c1)C(c1ccccc1OC(=O)c1cccc(C(F)(F)F)c1)C2 (some centres not stated) as the molecule, how does the Potency read?
A: The Potency was inconclusive: 1.58 µM [inhibitor, partial curve, poor fit].

Q: Which Potency does the source give for CC(=O)N/C(=C/c1ccccc1)c1sc2ccccc2[n+]1CCCCI here?
A: The Potency was inconclusive: 79.4 µM [inhibitor, single point].

Q: With CCOc1ccc(Nc2cc3n(c(=O)n2)CCc2cc(OC)c(OC)cc2-3)cc1 as the molecule, how does the Potency read?
A: Its Potency is inconclusive: 50.1 µM [inhibitor, partial curve, poor fit].

Q: With COc1cccc(-c2coc3c(C)c4oc(=O)c(CCC(=O)O)c(C)c4cc23)c1 as the molecule, how does the Potency read?
A: The Potency was inconclusive: 44.7 µM [inhibitor, partial curve, poor fit].

Q: Oc1cccc(C=NCc2ccccc2)c1O was tested. Which Potency did it give?
A: Its Potency is inconclusive: 44.7 µM [inhibitor, partial curve].

Q: Which Potency does the source give for O=C(N/N=C/c1ccc(Cl)c([N+](=O)[O-])c1)c1ccc2c(c1)OCCO2 here?
A: Its Potency is inconclusive: 79.4 µM [inhibitor, partial curve, poor fit].

Q: For Oc1ccccc1C=NC1=NN(c2cccc(C(F)(F)F)c2)CC1, which Potency is on record?
A: The Potency was “inactive”.

Q: Which Potency does the source give for COc1cc(Nc2ccccn2)cc(C(=O)Nc2cccc(C(F)(F)F)c2)c1 here?
A: Its Potency is inconclusive: 44.7 µM [inhibitor, partial curve, poor fit].

Q: For CCOc1ccc2nc(SCC(=O)N3CCCc4ccccc43)sc2c1, which Potency is on record?
A: The Potency was inconclusive: 89.1 µM [inhibitor, partial curve, poor fit].

Q: With COc1ccc(NC(=O)CSc2nnc(N)n2CC(=O)Nc2ccc(OC)cc2)cc1 as the molecule, how does the Potency read?
A: Its Potency is “inactive”.

Q: For Oc1ccc(C=NNc2nc3ccccc3s2)c(O)c1, which Potency is on record?
A: Its Potency is inconclusive: 79.4 µM [inhibitor, partial curve, poor fit].

Q: With Cc1cc(-c2ccccc2)nc2c(Br)c(C(=O)O)nn12 as the molecule, how does the Potency read?
A: Its Potency is inconclusive: 50.1 µM [inhibitor, partial curve].

Q: C=CCc1ccccc1OCC(O)CN1CCN(CCN2C(=O)c3cccc4cccc(c34)C2=O)CC1 (configuration not stated) was tested. Which Potency did it give?
A: The Potency was inconclusive: 28.2 µM [inhibitor, partial curve, poor fit].

Q: For COc1ccc(C(Nc2cc(C)ccn2)c2ccc3ccc(C)nc3c2O)cc1 (configuration not stated), which Potency is on record?
A: The Potency was “inactive”.

Q: CC(CN1CC(=O)NC(=O)C1)N1CC(=O)NC(=O)C1 (configuration not stated) was tested. Which Potency did it give?
A: Its Potency is inconclusive: 3.16 µM [inhibitor, full curve, poor fit].

Q: How did the Potency turn out when CCc1nc2ccc(C(=O)N3CCN(c4ccc(Cl)cc4)CC3)cc2nc1CC was run?
A: Its Potency is inconclusive: 20 µM [inhibitor, partial curve, poor fit].

Q: For Cc1cc(C(F)F)n2nc(C(=O)Nc3ccc(F)c(Cl)c3)nc2n1, which Potency is on record?
A: Its Potency is inconclusive: 89.1 µM [inhibitor, single point].

Q: For O=C(CSc1nc2c(cnn2-c2ccccc2)c(=O)[nH]1)c1ccc(Cl)cc1, which Potency is on record?
A: The Potency was inconclusive: 89.1 µM [inhibitor, single point].

Q: How did the Potency turn out when C=CCn1c(N)c(C(=O)NCC2CCCO2)sc1=S (configuration not stated) was run?
A: Its Potency is “inactive”.

Q: For CCOC(=O)c1nnc2c(Br)c(-c3ccccc3)nn2c1C, which Potency is on record?
A: The Potency was inconclusive: 70.8 µM [inhibitor, partial curve, poor fit].

Q: With O=C1CCN(Cc2ccccc2)S(=O)(=O)c2ccc(C(F)(F)F)cc21 as the molecule, how does the Potency read?
A: The Potency was inconclusive: 70.8 µM [inhibitor, partial curve, poor fit].

Q: For C=C(C)COc1ccc(-c2n[nH]c(C)c2-c2ccc(OC)c(OC)c2)c(O)c1, which Potency is on record?
A: The Potency was inconclusive: 50.1 µM [inhibitor, partial curve, poor fit].

Q: How did the Potency turn out when Cn1ccnc1SCC(=O)Nc1cc(Cl)ccc1Cl was run?
A: The Potency was “inactive”.

Q: How did the Potency turn out when Fc1ccc(CNc2nc(-c3ccccc3)cc(C(F)(F)F)n2)cc1 was run?
A: Its Potency is “inactive”.

Q: COc1ccccc1N1CCN(C(CNC(=O)C(=O)NCCc2ccccc2)c2cccnc2)CC1 (configuration not stated) was tested. Which Potency did it give?
A: Its Potency is inconclusive: 63.1 µM [inhibitor, partial curve, poor fit].

Q: How did the Potency turn out when Cc1ccccc1CN1CCCN(CC(=O)Nc2c(C)cccc2C)S1(=O)=O was run?
A: The Potency was “inactive”.

Q: For CC(C)(C)c1ccc(-c2noc(CCC(=O)N3CCOCC3)n2)cc1, which Potency is on record?
A: Its Potency is “inactive”.

Q: CSc1ncccc1C(=O)OCn1nnc2ccccc2c1=O was tested. Which Potency did it give?
A: The Potency was inconclusive: 89.1 µM [inhibitor, partial curve, poor fit].

Q: With Cc1cc(/C=N/NS(=O)(=O)c2ccc(F)c(Cl)c2)no1 as the molecule, how does the Potency read?
A: The Potency was “inactive”.

Q: Cc1cc(C(=O)OCC(=O)Nc2cccc(S(=O)(=O)N3CCOCC3)c2)c(C)o1 was tested. Which Potency did it give?
A: The Potency was “inactive”.

Q: With COc1ccc(N(Cc2cc3cccc(C)c3[nH]c2=O)S(=O)(=O)c2ccc(OC)cc2)cc1 as the molecule, how does the Potency read?
A: Its Potency is “inactive”.

Q: Which Potency does the source give for COc1ccc(C(=O)c2ccc(N3CCOCC3)cc2)c(OC)c1 here?
A: The Potency was inconclusive: 89.1 µM [inhibitor, partial curve, poor fit].

Q: With O=C(Nc1nc(-c2ccc(F)cc2)cs1)C1CCN(C(=O)c2ccc(F)cc2)CC1 as the molecule, how does the Potency read?
A: The Potency was inconclusive: 7.94 µM [inhibitor, partial curve, poor fit].

Q: Which Potency does the source give for CCOP(=O)(OCC)C(C#N)=C1SCN(c2ccccc2)CS1 here?
A: Its Potency is “inactive”.

Q: For CCC[C@@H](CN1CCC[C@H]1CN1C(N)=NC[C@@H]1Cc1ccccc1)N1C[C@@H]([C@H](C)CC)N(CCCC2CCCC2)C1=N, which Potency is on record?
A: Its Potency is “inactive”.

Q: For CC(=O)Nc1ccc2c(c1)Cc1cc(N3C(=O)C=CC3=O)ccc1-2, which Potency is on record?
A: Its Potency is inconclusive: 89.1 µM [inhibitor, partial curve, poor fit].

Q: Which Potency does the source give for C=CC(=O)Nc1cccc(N(C)c2ccnc(Nc3ccc(N4CCN(C)CC4)cc3)n2)c1 here?
A: The Potency was inconclusive: 35.5 µM [inhibitor, partial curve].

Q: CCOc1ccc(C(=O)Nc2cc(NC(=O)c3ccc(OCC)c(Cl)c3)cc(C(=O)O)c2)cc1Cl was tested. Which Potency did it give?
A: Its Potency is inconclusive: 56.2 µM [inhibitor, partial curve, poor fit].

Q: With Cc1cc(C)c2nccc(/C=C/c3ccc(N(C)C)cc3)c2c1 as the molecule, how does the Potency read?
A: The Potency was “inactive”.

Q: For CCn1c2ccccc2c2cc(CN3CCN(Cc4cc(OC)c(O)c(OC)c4)CC3)ccc21, which Potency is on record?
A: Its Potency is inconclusive: 39.8 µM [inhibitor, partial curve].

Q: COc1ccc(OC)c(N=Nc2c(O)c3ccccc3[nH]c2=O)c1 was tested. Which Potency did it give?
A: Its Potency is inconclusive: 70.8 µM [inhibitor, single point].

Q: Which Potency does the source give for O=c1cc(-c2ccncc2)oc2c1ccc1ccccc12 here?
A: Its Potency is inconclusive: 39.8 µM [inhibitor, partial curve].

Q: With NC(=NCCCCCCN=C(N)/N=C(\N)Nc1ccc(Cl)cc1)/N=C(\N)Nc1ccc(Cl)cc1 as the molecule, how does the Potency read?
A: The Potency was inconclusive: 50.1 µM [inhibitor, partial curve, poor fit] and inconclusive: 50.1 µM [inhibitor, partial curve].

Q: How did the Potency turn out when COc1ccc(OC)c(/C(O)=C/C(=O)C(=O)Nc2cc(C)cc(C)c2)c1 was run?
A: Its Potency is inconclusive: 31.6 µM [inhibitor, full curve].

Q: O=C(O)CCCN1C(=O)/C(=C\c2ccco2)SC1=S was tested. Which Potency did it give?
A: The Potency was active: 31.6 µM.

Q: For COc1cc(/C=C(\C#N)c2nc3ccccc3[nH]2)ccc1OCc1ccccc1F, which Potency is on record?
A: Its Potency is “inactive”.

Q: For Cc1ccc(C(=O)c2oc3ccc(Cl)cc3c2NC(=O)CN2CCN(C)CC2)cc1, which Potency is on record?
A: The Potency was inconclusive: 22.4 µM [inhibitor, full curve].

Q: How did the Potency turn out when Cc1ccc(CN2[C@@H](Cc3ccccc3)C(=O)CS2(=O)=O)cc1 was run?
A: Its Potency is inconclusive: 89.1 µM [inhibitor, partial curve, poor fit].

Q: For C=CCn1c(NC(=O)c2ccc(Br)o2)c(C(=O)OCC)sc1=S, which Potency is on record?
A: Its Potency is “inactive”.

Q: With NC(N)=NC(=O)c1nc(Cl)c(N2CCCCCC2)nc1N as the molecule, how does the Potency read?
A: Its Potency is inconclusive: 70.8 µM [inhibitor, partial curve, poor fit].

Q: CCOc1ccc(CC(=O)Nc2c(C(=O)Nc3ccc(OC)cc3OC)oc3ccccc23)cc1 was tested. Which Potency did it give?
A: The Potency was “inactive”.

Q: Which Potency does the source give for O=c1oc2ccccc2nc1/C=C(\O)c1ccccc1 here?
A: The Potency was inconclusive: 22.4 µM [inhibitor, full curve, poor fit].

Q: Which Potency does the source give for CCC1CC=CC2C1C(=O)N(Cc1ccccc1)C2c1cccc([N+](=O)[O-])c1 (configuration not stated) here?
A: Its Potency is “inactive”.

Q: Which Potency does the source give for O=c1cc2c(=O)oc3cc(O)c(O)oc3c2c(O)c1O here?
A: The Potency was active: 7.08 µM.

Q: With Cc1cccc(N2CCN(C(=O)C3CCCN(S(=O)(=O)c4ccc(Br)s4)C3)CC2)c1C (configuration not stated) as the molecule, how does the Potency read?
A: The Potency was “inactive”.

Q: O=S(=O)(Nc1cccc2ccccc12)c1ccc2ccccc2c1 was tested. Which Potency did it give?
A: Its Potency is inconclusive: 56.2 µM [inhibitor, partial curve, poor fit].
